According to PubChem BioAssay AID686979 (National Center for Advancing Translational Sciences (NCATS), 2013):
About 50,000 (12%) of roughly 420,000 compounds were called active. Not shown: some 26% with an inconclusive outcome. The call rests on the fitted dose curve; in most records, active means well fitted inhibition curve with a large enough effect; inconclusive means small, poorly fitted or top-dose-only effect; inactive means flat fitted curve, though single readings scatter. The entries are a selection whose mix differs from that of the whole data set. Some structures have more than one record in an assay (separate samples or runs), and their calls can disagree.

assay: qHTS for Inhibitors of human tyrosyl-DNA phosphodiesterase 1 (TDP1): qHTS in cells in presence of CPT; conditions: chicken DT40 Tdp1-/-;hTDP1 cells + 20 nM CPT, ATP luminescence, 48 h; series mostly up to 46.2 µM; activity change, negative = growth inhibition: at the top concentration; further: nearly all actives have a fitted effect of over 55% in size
Procedure, shortened: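 Chicken DT40 Tdp1-/- cells stably complemented with human TDP1 were seeded at 400 cells/well in medium containing 20 nM camptothecin, exposed to pin-transferred compounds, and grown at 37 °C for at least 48 hr. Viability was read as ATP luminescence.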
On the % scale 0 is the no-effect control and ±100 the full control effect; potency means the concentration at half of the fitted maximal effect.

SMILES | activity change, negative = growth inhibition | Potency
COc1ccccc1C(=O)Nc1ccc2c(c1)nc(CN1CCCCC1)n2C | inactive: -26.5% | –
O=C1OC(C(O)CO)C(O)=C1O (stereo not drawn) | inactive: 2.02% | –
Cc1nc2c3ccccc3nc(NNC(=O)CCC(=O)N3CCN(c4ccccc4F)CC3)n2n1 | inactive: -21.5% | –
COc1ccccc1C(CNC(=O)c1ccc(-c2ccccc2Cl)o1)N1CCCC1 (stereo not drawn) | – | active: 23.1 µM
O=NNc1nc2ccccc2n1Cc1ccccc1 | – | active: 4.61 µM
O=C(NC1(Cc2ccc(O)cc2)CCCCC1)c1ccccc1 | inactive: 14.8% | –
CC1CN(S(=O)(=O)c2cccc(C(=O)N(C)C3CCCCC3)c2)CC(C)O1 (stereo not drawn) | – | active: 18.4 µM
COc1c2c(nc3occc13)C(CC=C(C)C)(OC)C(=O)C=C2 (stereo not drawn) | inactive: 2.29% [at 9.04 µM] | –
CC1CCN(S(=O)(=O)c2ccc3c(c2)N(CC(=O)O)C(=O)CO3)CC1 | – | active: 14.6 µM
CCN1CCN(C(=O)Nc2cc(Cl)ccc2OC)CC1 | inactive: 31.9% | –
Cc1nc2nc[nH]n2c(=O)c1NC(=O)CC12CC3CC(CC(C3)C1)C2 | inactive: -1.91% | –
O=C(Nc1ccccc1)C1=C[C@H](c2ccc(C(F)(F)F)cc2)C[C@H](OCCCCO)O1 | inactive: -23.4% | –
COc1cccc(CN(C)CC(=O)Nc2cc3oc4ccccc4c3cc2OC)c1 | – | active: 23.1 µM
CN(C1CCCCC1)S(=O)(=O)c1ccc(C(=O)Nc2sc3c(c2C(N)=O)CC(C)(C)NC3(C)C)cc1 | inactive: -29.7% | –
Cn1c(=O)c(=O)n(C)c2cc(S(=O)(=O)N3CCN(c4ccccc4F)CC3)ccc21 | inactive: 2.62% | –
CCN(C(=O)CCS(=O)(=O)c1cccc2nsnc12)c1cccc(C)c1 | inactive: -7.64% | –
COc1ccccc1NC(=O)CCN1C(=O)/C(=C\c2cc(OC)c(OC)c(OC)c2)SC1=S | inactive: -12.9% | –
CCC(C(=O)NC1CCCCC1)n1c(SCc2ccc(F)cc2)nc2ccncc21 (stereo not drawn) | inactive: -18.2% | –
CC(NC(=O)CN(C)S(=O)(=O)c1ccc2c(c1)c(=O)n(C)c(=O)n2C)c1ccccc1 (stereo not drawn) | inactive: -3.43% | –
COc1ccc2nc(N=NC3=C(O)CC(C)(C)CC3=O)sc2c1 | – | active: 5.17 µM
CCOc1ccc(C2C(C(=O)c3ccc(C)o3)=C(O)C(=O)N2CCCN(CC)CC)cc1 (stereo not drawn) | inactive: -1.79% | –
Cc1cc2oc(C(=O)NCCc3ccc(S(N)(=O)=O)cc3)cc(=O)c2cc1C | inactive: -2.33% | –
COC(=O)c1cc2occc2n1Cc1nc(-c2ccccc2C)oc1C | inactive: -26.5% | –
CCC(C)Sc1nc2c([nH]c3ccccc32)c(=O)n1C (stereo not drawn) | inactive: -2.21% | –
COc1ccc(-c2ccc(C(=O)NCCc3ccccc3)c3occc23)c(C)c1 | – | active: 20.6 µM

SMILES | activity change, negative = growth inhibition | Potency
CCC(Sc1nc2cc(OC)c(OC)cc2c(=O)n1Cc1ccc(OC)cc1)C(=O)NCCOC (stereo not drawn) | inactive: -1.34% | –
Cc1ccc([C@H]2C[C@H](n3cc(COC(=O)c4ccccc4)nn3)[C@@H](O)CN2C(=O)C2CCCCC2)cc1 | inactive: -9.12% | –
CCN(Cc1ccccc1)C(=O)CCS(=O)(=O)c1ccc2c(c1)CCN2C(C)=O | inactive: -23.4% | –
COc1ccc(OCCNC(=O)C2(C)CCN2Cc2ccc3ccccc3c2)cc1 (stereo not drawn) | – | active: 29.1 µM
N[C@H](C(=O)O)c1ccc(C(=O)O)c(O)c1 | – | inactive
CN(Cc1ccccc1)C(=O)CCC1CCN(C(=O)c2ccco2)CC1 | inactive: 4.83% | –
COc1ccc([C@H]2C[C@H](O)[C@@H](n3cc(-c4ccc(F)cc4)nn3)CN2CC2CCCCC2)cc1 | inactive: -61.4% | –
CCOC(=O)N1CCN(C(=O)CCN2C(=O)/C(=C\c3ccc(OC)c(OC)c3)SC2=S)CC1 | inactive: -0.934% | –
O=C(Nc1ccc(F)cc1)Nc1nnc([C@@H]2C[C@H](O)[C@@H](CO)O2)s1 | inactive: -10.1% | –
CCOc1cc2c(cc1/C=C1/NC(=O)N(CC(=O)OC)C1=O)OCO2 | inactive: 33.5% | –
C[n+]1ccccc1/C=C/c1c(F)cccc1F | inactive: 10.3% | –
COc1ccc(C)cc1NC(=O)CN(C)S(=O)(=O)c1ccc2c(c1)CCCN2C(C)=O | inactive: -20.3% | –
CN(C(=O)CSc1nc2ccc(NC(=O)c3ccccc3F)cc2s1)c1ccccc1 | – | active: 14.6 µM
Cc1cccc(N2CCN(C(=S)Nc3ccc4nc(N5CCN(C)CC5)cc(C)c4c3)CC2)c1C | – | active: 1.3 µM
CCNC(=S)N1CCC(C(O)(c2ccccc2)c2ccccc2)CC1 | inactive: 5.16% | –
CCc1nnc(NS(=O)(=O)c2ccc(NC(=O)c3cccc(Cl)c3)cc2)s1 | inactive: 32.5% | –
COc1ccc(CN2Cc3cccc4c3[C@@H](CC2=O)[C@H](O)[C@H](O)C4)cc1 | inactive: 1.61% | –
COc1ccc(C(=O)NC(=S)Nc2ccc(N3CCOCC3)c(Cl)c2)cc1[N+](=O)[O-] | – | active: 13 µM
CN1CCN2c3ccccc3Cc3ccccc3C2C1 (stereo not drawn) | – | inactive
Cc1cc(NS(=O)(=O)c2cn(C)nc2C)no1 | inactive: 44.2% | –
COC(=O)[C@@H]1C[C@@H]2CC[C@@H](O)C[C@@H]2N1Cc1ccccc1OS(=O)(=O)c1ccc(C)cc1 | inactive: 1.74% | –
CCCCCCC(=O)N(O)C1CC(=O)N(c2ccc(C)cc2)C1=O (stereo not drawn) | – | active: 2.91 µM
Nc1c(C(=O)NCc2ccc3c(c2)OCO3)nnn1CC(=O)Nc1ccc(Br)cc1 | inactive: -24.6% | –
COc1ccc(N(CC(=O)NCCSc2ccccn2)S(=O)(=O)c2ccccc2)cc1Cl | – | active: 16.4 µM
CCC(c1ccccc1)c1nnc(NC(=O)c2ccco2)s1 (stereo not drawn) | inactive: 0.867% | –

SMILES | activity change, negative = growth inhibition | Potency
COc1cc(CNC(=O)CCCCCCC(C)C)ccc1O | inactive: -6.54% | –
O=C1C=CC2=C3c4cc(O)c(O)cc4CC3(O)COC2=C1O (stereo not drawn) | – | inactive
Cc1ccc(C2=NN=C(NC(=O)CSc3nnc4c5ccccc5n(C)c4n3)SC2)cc1 | – | active: 10.3 µM
Cc1ccc([N+](=O)[O-])c2c1C(N1CCCCC1)C(C)(C)O2 (stereo not drawn) | inactive: -3.37% | –
Cc1ccnc(NC(=O)CN2C(=O)c3ccccc3C2=O)c1 | inactive: 45% | –
CC(C)C[C@@H](CN=[N+]=[N-])N1CCN(Cc2ccccc2)CCC1=O | inactive: -14.2% | –
Cc1ccc2c(c1)N(S(=O)(=O)c1ccc3c(c1)NC(=O)CC(=O)N3)CCO2 | inactive: -10.2% | –
O=C1O[C@H]([C@@H](O)CO)C(O)=C1O | – | inactive
CN(C)c1ccc(/C=C/c2cc[n+](C)c3ccc4ccccc4c23)cc1 | – | active: 0.0891 µM
Cc1cc(=O)n(CC(=O)N2CCN(c3ccc(F)cc3)CC2)c2c1c(C)nn2C | – | active: 18.4 µM
O=C1CC[C@@H](O)CCN1CC[C@H](Sc1ccccc1)c1ccccc1 | inactive: -26.4% | –
COc1ccccc1N1CCN(CCN2C(=O)CC3(CCCC3)CC2=O)CC1 | – | inactive
CC(C)C(Cl)=NOC(=O)Nc1ccc(S(N)(=O)=O)cc1 | – | active: 1.16 µM
C=CCNC(=O)C12CCC(C)(C(=O)C1Br)C2(C)C (stereo not drawn) | inactive: -0.767% | –
COc1ccc(N2CCN(C(=O)CCC(=O)NNc3nc4ccccc4c4nc(C)nn34)CC2)cc1 | inactive: -4.91% | –
COc1ccc(CNC(=O)[C@@H]2CC=C[C@@H]3CCN(Cc4ccccc4)C(=O)[C@@H]32)cc1 | inactive: -23.3% | –
CCOc1ccccc1C(=O)Nc1nnc(COC)s1 | inactive: -0.0325% | –
COc1ccc(Cl)cc1NC(=O)CN(C)CC(=O)N1CC(=O)Nc2ccccc21 | inactive: -25.9% | –
OCC[C@H]1C[C@@H](O)[C@H](O)[C@]2(Cc3ccccc3O2)O1 | inactive: 14.6% | –
CC(=O)Nc1ccc(N2C(=O)CSC2c2ccc([N+](=O)[O-])cc2)cc1 (stereo not drawn) | inactive: 36% | –
CCO[C@H]1OC(C(=O)N2CCCCCCC2)=C[C@@H](c2csc3ccccc23)[C@@H]1CCCO | inactive: -28.3% | –
COc1ccc(CC(=O)c2ccc(O)cc2O)cc1 | inactive: -21.2% | –
COc1ccc(N2CCN(C(=O)Nc3ccccc3Cl)CC2)cc1 | inactive: -18.7% | –
CCOC(=O)N1CCN(S(=O)(=O)N2CCCC(C(=O)NCc3ccc(OC)cc3OC)C2)CC1 (stereo not drawn) | inactive: -27.5% | –
CC(=O)c1cc(-c2ccccc2)n(CCC(=O)NC2CCCCC2)c1C | inactive: 4.76% | –

SMILES | activity change, negative = growth inhibition | Potency
CCCCOc1ccc(OCCCN2CCOCC2)cc1 | – | inactive
CC(C)CCNC(=O)C1CCC(CNS(=O)(=O)c2cccc3nsnc23)CC1 (stereo not drawn) | inactive: -23.8% | –
CN1N=C2c3ccccc3CCC2C1c1ccc(Cl)cc1 (stereo not drawn) | inactive: 33.4% | –
CC(=O)Nc1ccc(S(=O)(=O)NCc2ccc(C(=O)NCc3ccc(Cl)cc3)cc2)cc1 | inactive: -19.4% | –
CCOC(=O)c1cc2c(ccn2C)n1CC(=O)N(CC)CC | inactive: 5.74% | –
COc1ccc(-c2cc(C(=O)NC(C)c3ccccn3)c3ccccc3n2)cc1OC (stereo not drawn) | – | active: 23.1 µM
COc1ccccc1CN1CCCC(n2cc(C(=O)N3CCCC3)nn2)C1 (stereo not drawn) | inactive: 41.9% [at 9.04 µM] | –
CCN(Cc1ccccc1)S(=O)(=O)c1c(C)n(C)c(=O)n(C)c1=O | inactive: 2.51% | –
Cn1c2c(c(=O)n(C)c1=O)C(c1cccc(F)c1)C(C#N)=C(N)O2 (stereo not drawn) | inactive: 12.8% | –
Cc1ccc(O)c(C(=O)CC(=O)c2ccc(Cl)cc2)c1 | – | active: 7.31 µM
CN(C)c1ccc(C(=S)N2CCN(C(=S)Nc3ccccc3)CC2)cc1 | inactive: 1.01% | –
Cc1c(C)n(C)c2ccc(C(=O)N3CCN(c4ccccc4)CC3)cc12 | inactive: -26.6% | –
Cc1ccc(C2=N/C(=C/c3cccs3)C(=O)N2Nc2ccccc2)cc1 | inactive: -17.9% | –
COC(=O)c1cc2occc2n1Cc1cccc(C)c1 | inactive: -10.7% | –
CC[C@]12CCCN3CCc4c(n(c5ccccc45)[C@@](O)(C(=O)OC)C1)[C@@H]32 | – | inactive
Cc1cc(OC(=O)C2CC2)c([N+](=O)[O-])c(=O)[nH]1 | inactive: 40.2% | –
O=C(CCC(=O)c1cccs1)Nc1ncccc1O | inactive: 16.2% | –
Cc1nnc(NC(=O)CSc2nc(C(C)C)nc3ccccc23)s1 | – | active: 6.51 µM
C[C@@H]1CN([C@H](C)CO)C(=O)CCCn2cc(nn2)CO[C@H]1CN(C)S(=O)(=O)c1ccc2ccccc2c1 | inactive: -17% | –
CC(O)(C(=O)Nc1ccc(S(=O)(=O)c2ccccc2)cc1)C(F)(F)F (stereo not drawn) | inactive: -27.1% | –
O=C(NC1CC1)C1=C[C@H](c2coc3ccccc3c2=O)C[C@H](OCc2ccc(CO)cc2)O1 | inactive: -14% | –
O=C(CNC(=O)c1cccs1)NCC(=O)OCc1c(Cl)cccc1Cl | inactive: 1% | –
COc1cc(C(C)=O)ccc1COc1ccc(C(=O)OCC(N)=O)cc1OC | inactive: 36.9% | –
